# Assay results as given in the supplement of paper PMC9135407.
# Values joined by “and” are separate entries in the source; they are usually repeats but may differ in a detail not shown here. Identical values can stand only once. Counter-ions that a name gives are not always drawn. Hit rate of the full screen: of about 5,800 compounds, about 620 (11%) showed activity.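 The calls were made as follows: active = score above a cut-off or among the top three wells of a plate; in these data no inactive exceeds 0.85.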 This is a selection; strong and weak results do not stand in their true shares.
# Tested on: primary human hepatic stellate cells (donor 1)
# Assay: scaled lipid accumulation score (0 = DMSO-like, 1 = nortriptyline-like); higher = stronger HSC inactivation (lipid re-accumulation), active = hit call of the paper
# Settings: 48 h
# Procedure: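 Primary lipid accumulation screen in primary human hepatic stellate cell myofibroblasts (donor 1, passage 8) in 384-well plates. 100 nL of library compound was pin-transferred into 30 µL medium in duplicate, and cells were treated for 48 h. The 'Scaled' score combines distance from plate baseline, toxicity and reproducibility penalties, and is normalised to nortriptyline (positive) and DMSO (negative) controls on each plate. A hit is defined as scaled >0.85 or among the top 3 wells per plate.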
# [1] = library stock concentration: 10 mM
# [2] = library stock concentration: 3.33 mM
# [3] = library stock concentration: 1 mM
# [4] = library stock concentration: 80 uM
# [5] = library stock concentration: 400 uM
# [6] = library stock concentration: 2 mM
structure (smiles),measurement,setting,value
CC(C)NC[C@H](O)COc1ccc(CC(N)=O)cc1 [(S)-(-)-Atenolol],scaled lipid accumulation score,,inactive: 0.114
CC(C)NC[C@H](O)COc1ccc(CC(N)=O)cc1 [S-(-)-Atenolol],scaled lipid accumulation score,[1],inactive: 0.011
CC(C)NC[C@H](O)COc1ccc(CC(N)=O)cc1 [S(-)-Atenolol],scaled lipid accumulation score,[1],inactive: ≤ 0
CCC(NC(C)C)C(O)c1ccc(O)c(O)c1 (stereo not drawn) [Isoetharine mesylate salt],scaled lipid accumulation score,,inactive: ≤ 0
CCC(NC(C)C)C(O)c1ccc(O)c(O)c1 (stereo not drawn) [Isotharine mesylate],scaled lipid accumulation score,[1],inactive: 0.037
CCC(NC(C)C)C(O)c1ccc(O)c(O)c1 (stereo not drawn) [Isoetharine mesylate],scaled lipid accumulation score,library stock concentration: 6 mM,inactive: ≤ 0
CCC(Cc1c(I)cc(I)c(N)c1I)C(=O)O (stereo not drawn) [Iopanic acid],scaled lipid accumulation score,library stock concentration: 3.5 mM,inactive: ≤ 0
same,scaled lipid accumulation score,[1],inactive: ≤ -0.027
CCC(Cc1c(I)cc(I)c(N)c1I)C(=O)O (stereo not drawn) [Iopanoic acid],scaled lipid accumulation score,,inactive: ≤ 0
CN(C)CC=CC(=O)Nc1cc2c(Nc3ccc(F)c(Cl)c3)ncnc2cc1O[C@H]1CCOC1 [Afatinib (BIBW2992)],scaled lipid accumulation score,[2],active: 1.12
CC(=O)OCCNC(=O)c1cccnc1 [N-[2-(Acetoxy)ethyl]-3-pyridinecarboxamide],scaled lipid accumulation score,[1],inactive: ≤ 0
CN1CCc2cccc3c2[C@H]1Cc1ccc(O)c(O)c1-3 [Apomorphine hydrochloride],scaled lipid accumulation score,library stock concentration: 6.6 mM,inactive: 0.018
same,scaled lipid accumulation score,[1],inactive: ≤ 0
CN1CCc2cccc3c2[C@H]1Cc1ccc(O)c(O)c1-3 [Apomorphine hydrochloride hemihydrate],scaled lipid accumulation score,[1],inactive: ≤ 0
CN1CCc2cccc3c2[C@H]1Cc1ccc(O)c(O)c1-3 [(R)-(-)-Apomorphine hydrochloride],scaled lipid accumulation score,[1],inactive: ≤ 0
CN1CCc2cccc3c2[C@H]1Cc1ccc(O)c(O)c1-3 [R(-) Apomorphine hydrochloride hemihydrate],scaled lipid accumulation score,,inactive: 0.036
CN1CCc2cccc3c2[C@H]1Cc1ccc(O)c(O)c1-3 [Apomorphine r (-)],scaled lipid accumulation score,library stock concentration: 7.5 mM,inactive: ≤ -0.006
CNC(CC(=O)O)C(=O)O [NMDA (N-Methyl-D-aspartic acid)],scaled lipid accumulation score,[2],inactive: ≤ 0
same,scaled lipid accumulation score,[1],inactive: ≤ -0.001
Cl.Clc1ccc(Cn2c(CN3CCCC3)nc3ccccc32)cc1 [Clemizole hydrochloride],scaled lipid accumulation score,[1],active: 0.991
C[C@]12CC[C@@H]3c4ccc(O)cc4CC[C@H]3[C@@H]1CC[C@@H]2OC(=O)CCC1CCCC1 [Estradiol cypionate],scaled lipid accumulation score,library stock concentration: 5 mM,inactive: ≤ -0.001
same,scaled lipid accumulation score,[1],inactive: ≤ 0
C[C@]12CC[C@@H]3c4ccc(O)cc4CC[C@H]3[C@@H]1CC[C@@H]2OC(=O)CCC1CCCC1 [Estradiol Cypionate],scaled lipid accumulation score,[2],inactive: ≤ 0
same,scaled lipid accumulation score,[1],inactive: 0.262
CC(=O)Nc1ccc(NC(=S)NC(=O)c2ccc(C(C)(C)C)cc2)cc1 [Tenovin-1],scaled lipid accumulation score,[3],inactive: ≤ 0
CCOC(=O)[C@]12CC1/C(=N\O)c1ccccc1O2 (stereo partly drawn),scaled lipid accumulation score,[1],inactive: ≤ 0 and inactive: 0.015
O=c1cc(-c2ccc(O)c(O)c2)oc2cc(O)cc(O)c12 [Luteolin],scaled lipid accumulation score,,inactive: ≤ 0
same,scaled lipid accumulation score,[3],inactive: ≤ 0
same,scaled lipid accumulation score,[2],inactive: 0.017
same,scaled lipid accumulation score,[1],inactive: 0.452
CCN1CCN(Cc2ccc(NC(=O)c3ccc(C)c(Oc4ccnc5[nH]ccc45)c3)cc2C(F)(F)F)CC1,scaled lipid accumulation score,[4],inactive: 0.069
same,scaled lipid accumulation score,[5],inactive: 0.308
same,scaled lipid accumulation score,[6],inactive: 0.809
same,scaled lipid accumulation score,[1],inactive: 0.792
Nc1ncn([C@H]2C[C@H](O)[C@@H](CO)O2)c(=O)n1 [Decitabine],scaled lipid accumulation score,[4],inactive: ≤ 0
same,scaled lipid accumulation score,[5],inactive: ≤ 0
same,scaled lipid accumulation score,[6],inactive: ≤ 0
same,scaled lipid accumulation score,[2],inactive: ≤ 0
same,scaled lipid accumulation score,[1],inactive: ≤ 0 and inactive: 0.012
NCCCCNCCCN [Spermidine trihydrochloride],scaled lipid accumulation score,[1],inactive: 0.017 and inactive: ≤ 0
CC(C)(C(=O)c1cccnc1)c1cccnc1,scaled lipid accumulation score,[1],inactive: ≤ 0
CC(C)(C(=O)c1cccnc1)c1cccnc1 [Metyrapone],scaled lipid accumulation score,,inactive: ≤ 0
same,scaled lipid accumulation score,library stock concentration: 8.8 mM,inactive: ≤ 0
CC(C)(S)C(N)C(=O)O (racemic),scaled lipid accumulation score,[1],inactive: ≤ 0
CC(=O)N(O)CCCCCNC(=O)CCC(=O)N(O)CCCCCNC(=O)CCC(=O)N(O)CCCCCN [Deferoxamine mesylate],scaled lipid accumulation score,,inactive: ≤ 0
same,scaled lipid accumulation score,library stock concentration: 3 mM,inactive: ≤ -0.001
same,scaled lipid accumulation score,[1],inactive: ≤ 0
O=S(=O)(c1cccc2cnccc12)N1CCNCC1,scaled lipid accumulation score,[1],inactive: 0.248
NC(Cc1cccc(-c2ccccc2CP(=O)(O)O)c1)C(=O)O (stereo not drawn) [Phenylbenzene-omega-phosphono-alpha-amino acid],scaled lipid accumulation score,[1],inactive: ≤ 0
CC(C)/N=c1\cc2n(-c3ccc(Cl)cc3)c3ccccc3nc-2cc1Nc1ccc(Cl)cc1,scaled lipid accumulation score,[1],inactive: ≤ 0
CC(C)/N=c1\cc2n(-c3ccc(Cl)cc3)c3ccccc3nc-2cc1Nc1ccc(Cl)cc1 [Clofazimine],scaled lipid accumulation score,,inactive: 0.214
same,scaled lipid accumulation score,[2],inactive: 0.119
same,scaled lipid accumulation score,[1],inactive: 0.449
O=C1Cc2cc(CCN3CCN(c4nsc5ccccc45)CC3)c(Cl)cc2N1 [Ziprasidone hydrochloride monohydrate],scaled lipid accumulation score,[1],inactive: 0.074
O=C1Cc2cc(CCN3CCN(c4nsc5ccccc45)CC3)c(Cl)cc2N1 [Ziprasidone HCl],scaled lipid accumulation score,[2],inactive: ≤ 0
same,scaled lipid accumulation score,[1],inactive: 0.045
O=C1Cc2cc(CCN3CCN(c4nsc5ccccc45)CC3)c(Cl)cc2N1,scaled lipid accumulation score,[1],inactive: 0.239
CCCCCC[C@@H]([C@@H](C)O)n1cnc2c(N)ncnc21 (racemic),scaled lipid accumulation score,library stock concentration: 18 mM,inactive: 0.052
CCCCCC[C@@H]([C@@H](C)O)n1cnc2c(N)ncnc21 (racemic) [erythro-9-(2-Hydroxy-3-nonyl)adenine hydrochloride],scaled lipid accumulation score,[1],inactive: 0.161
CCN[C@H]1C[C@H](C)S(=O)(=O)c2sc(S(N)(=O)=O)cc21 [Dorzolamide hydrochloride],scaled lipid accumulation score,,inactive: ≤ 0
CCN[C@H]1C[C@H](C)S(=O)(=O)c2sc(S(N)(=O)=O)cc21 [Dorzolamide],scaled lipid accumulation score,library stock concentration: 6.2 mM,inactive: ≤ -0.006
C[N+](C)(C)CCCCCNCC12CC3CC(CC(C3)C1)C2,scaled lipid accumulation score,[1],inactive: 0.05
CN(C)CCC(c1ccc(Br)cc1)c1ccccn1.O=C(O)/C=C\C(=O)O (stereo not drawn),scaled lipid accumulation score,[1],active: 0.9
